# Over roughly 110,000 compounds, “z-score” has its median near -0.1; the highest 2% begin near 2. The list shows a part of the results.
# Target: Metabotropic glutamate receptor 8 (Rattus norvegicus) (UniProt P70579)
# Experiment: rat mGluR8 modulators via GIRK flux, primary screen, cell-based, thallium flux, HTS (AID 488969)
# Details: HEK293 rat mGluR8, GIRK (G protein-gated inwardly rectifying potassium channel) thallium flux, FluoZin2; at 10 µM; stronger effect = higher value; submaximal glutamate (EC20) added with thallium
# Chain of UniProt P70579 (P70579 whole entry, looked up): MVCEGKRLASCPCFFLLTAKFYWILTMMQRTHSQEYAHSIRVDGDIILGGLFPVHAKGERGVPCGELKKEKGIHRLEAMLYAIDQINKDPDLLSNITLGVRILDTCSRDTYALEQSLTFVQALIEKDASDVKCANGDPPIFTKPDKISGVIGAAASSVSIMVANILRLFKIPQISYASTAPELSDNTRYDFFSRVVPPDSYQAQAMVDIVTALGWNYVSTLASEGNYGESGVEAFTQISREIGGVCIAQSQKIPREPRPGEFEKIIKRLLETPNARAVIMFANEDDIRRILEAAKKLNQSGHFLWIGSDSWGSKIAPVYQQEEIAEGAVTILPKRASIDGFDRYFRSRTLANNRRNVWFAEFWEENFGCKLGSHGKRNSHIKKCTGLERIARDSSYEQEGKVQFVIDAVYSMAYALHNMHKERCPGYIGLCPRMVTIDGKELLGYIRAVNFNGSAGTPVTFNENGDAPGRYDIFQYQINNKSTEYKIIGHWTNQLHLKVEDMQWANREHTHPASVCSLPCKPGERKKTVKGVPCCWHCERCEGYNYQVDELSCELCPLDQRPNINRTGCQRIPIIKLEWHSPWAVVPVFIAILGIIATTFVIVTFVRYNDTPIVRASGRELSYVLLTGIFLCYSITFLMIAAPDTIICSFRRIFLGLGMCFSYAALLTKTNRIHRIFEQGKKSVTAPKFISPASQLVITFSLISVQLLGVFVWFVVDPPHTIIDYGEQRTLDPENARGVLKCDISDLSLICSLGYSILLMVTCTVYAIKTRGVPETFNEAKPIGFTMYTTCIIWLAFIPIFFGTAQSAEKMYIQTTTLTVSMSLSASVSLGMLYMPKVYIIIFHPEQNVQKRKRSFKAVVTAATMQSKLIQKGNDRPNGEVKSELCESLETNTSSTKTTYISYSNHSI
row,Compound,z-score
1,Cc1ccc(SCc2cc(=O)[nH]c(/N=C(\N)Nc3ccc(C)c(C)c3)n2)cc1,-0.104
2,O=C(COC(=O)Cn1cnc2ccccc2c1=O)Nc1ccccc1Sc1ccc(Cl)cc1,0.148
3,Cc1nn(Cc2c(Cl)cccc2Cl)c(C)c1NC(=O)c1cn(-c2ccccc2)nc1-c1ccccc1,0.0645
4,CCOC(=O)C(O)(CC(=O)Nc1ccc(Cl)cc1Cl)C(F)(F)F (stereo not drawn),0.0131
5,CCOC(=O)CN(C(=O)CSc1nnc(-c2ccc(OC)c(OC)c2)o1)c1ccc(F)cc1,0.0821
6,COc1cc(S(=O)(=O)N2CCCCC2)ccc1NC(=O)c1ccccc1Cl,-2.09
7,O=C(c1cccc(N2C(=O)C3C4C=CC(C4)C3C2=O)c1)N1CCCCCC1 (stereo not drawn),-0.208
8,Cc1ccc(NC(=O)CCC(=O)NNC(=O)c2ccco2)cc1C,-0.178
9,O=C(COc1ccc(Br)cc1)NCc1ccccn1,-0.391
10,O=C(c1ccc(C23CC4CC(CC(C4)C2)C3)o1)N1CCOCC1,1.64
11,Fc1ccc(CSc2ncnc3scc(-c4ccccc4)c23)cc1,-0.149
12,Nn1c(COc2ccc(Cl)cc2)nc2ccccc2c1=O,-0.285
13,Cc1cccc(Oc2ncc(-c3ccc(Cl)cc3)cn2)c1,0.0612
14,COC(=O)N/N=C/c1cccnc1,-0.224
15,CC(C)Cc1nc(N2CCOCC2)c(C#N)c2c1CCC2,-0.603
16,COC(=O)NCC(c1cccnc1)N1CCN(c2ccccc2)CC1 (stereo not drawn),-0.0866
17,ONC(=Nc1ccccc1)c1ccccc1Cl,-0.0413
18,CCN1CCN(c2nc(Nc3ccc(C)c(C)c3)nc(N)c2[N+](=O)[O-])CC1,0.0631
19,Cc1ccccc1-c1nc2cc(Cl)ccc2o1,0.302
20,CC(C)[C@H](N)c1nnc(SC/C=C/c2ccccc2)o1,-0.475
21,CCOC(=O)c1ccc(NC(=O)c2ccccc2[N+](=O)[O-])cc1,-0.169
22,COc1cc(OC)c(S(=O)(=O)N2CCCCC2)cc1S(=O)(=O)N1CCCCC1,0.721
23,CC(=O)Nc1ccc(OC(=O)C(CCS(C)(=O)=O)N2C(=O)c3ccccc3C2=O)cc1 (stereo not drawn),0.407

row,Compound,z-score
1,Nc1ccc(-c2nc3c(Cl)c(N)ccc3[nH]2)cc1,0.205
2,CCCn1c(CNC(=O)c2cccs2)nc2ccccc21,-0.517
3,CCS(=O)(=O)N1CCCC(C(=O)NCCN(C)Cc2ccccc2)C1 (stereo not drawn),-0.167
4,Cc1cc(NC(=O)CSc2nnc(Cc3ccccc3)o2)no1,0.0242
5,Cc1noc(/C=C/N(C)C)c1S(=O)(=O)NC1CCCCC1,-0.658
6,CC(C)(C)OC(=O)N1CCC(c2c(C(=O)O)cnn2-c2ccc(Cl)cc2)CC1,0.071
7,CCC(C)NC(=O)c1c(N)n(/N=C/c2cccs2)c2nc3ccccc3nc12 (stereo not drawn),0.0751
8,O=C1c2ccccc2C(=O)N1OS(=O)(=O)c1ccccc1,0.0113
9,COc1ccc(S(=O)(=O)N2CCC(C(=O)N3CCc4ccccc4C3)CC2)cc1C,-0.772
10,Cc1ccccc1NC(=O)c1ccc(CSc2ncccn2)cc1,-0.061
11,Cc1cc(C(=O)COC(=O)c2ccc(CO)cc2)c(C)n1CC1COc2ccccc2O1 (stereo not drawn),-0.0509
12,CC(=O)Nc1ccc(SCC(=O)c2cc(C)n(Cc3cccs3)c2C)cc1,-0.335
13,O=[N+]([O-])c1c(NCCO)cc(N2CCC3(CC2)OCCO3)c2nonc12,0.128
14,COc1ccccc1-c1ccc(Nc2cccc(C(F)(F)F)c2)nn1,0.399
15,CC(C)CC(=O)N1CCN(Cc2ccc3c(c2)OCO3)CC1,-0.28
16,O=C1NC2(CCc3ccccc32)C(=O)N1CCOc1ccc(Cl)cc1 (stereo not drawn),-0.107
17,CCC(=O)NC(c1ccccc1Cl)c1c(O)ccc2ccccc12 (stereo not drawn),-0.449
18,Cc1c(NC(=O)c2cc3ccccc3c(=O)s2)c(=O)n(-c2ccccc2)n1C,-0.205
19,CCOC(=O)N1CCN(C(=O)CSc2nnc(-c3cc(OC)cc(OC)c3)o2)CC1,-1.14
20,CC1(C)CC(=O)C=C(NCCN2CCN(C(=O)Nc3ccc(Cl)cc3)CC2)C1,-0.625
21,O=S(=O)(/N=C(/Sc1ccccc1)c1ccccc1)c1ccccc1,-0.61
22,CCOC(=O)c1sc(-c2ccccc2)cc1NC(=O)Nc1ccccc1,-0.034
23,CC1Oc2ccccc2C=C1/C=C1/SC(N2CCOCC2)=NC1=O (stereo not drawn),-0.342

row,Compound,z-score
1,CC1=NN(c2ccc(Cl)c(C(=O)O)c2)C(=O)C1,-0.0421
2,Cc1cc(C)nc(Nc2ncc(O)n2-c2ccc(C)c(C)c2)n1,-0.225
3,CSc1ccc(CNc2ccccn2)cc1,-1.02
4,Cc1ccc(Nc2n[nH]c(C)c2[N+](=O)[O-])cc1C,2.51
5,Cc1cccc(N(C(=O)c2csnn2)C(C(=O)NC(C)(C)C)c2ccncc2)c1 (stereo not drawn),-0.134
6,C=COCCn1c(-c2nonc2N)nc2ccccc21,0.256
7,COC(=O)Cn1ncc(N2C3CC(CC(C)(C)C3)C2C)c(Cl)c1=O (stereo not drawn),-0.196
8,CNC(=O)NCCN1CCCC1=O,0.0396
9,FC(F)(F)c1nnc2ccc(-n3ccnc3)nn12,0.0397
10,COc1cc(/C=c2\sc3n(c2=O)CCCN=3)ccc1O,0.13
11,C=CCNC(=S)Nc1ccc(F)cc1F,-0.172
12,COc1cccc(/C=N/n2c(C)nc3ccccc32)c1OC,-0.136
13,CCOc1cc(N2CCOCC2)c(OCC)cc1NC(=O)CN1CCC(Cc2ccccc2)CC1,-0.185
14,Cc1ccccc1CN1CCNC1=O,-0.251
15,CNC(=S)Nc1ccc(Nc2ccccc2)cc1,0.0658
16,Cc1ccc(NC(=O)CN2C(=O)N/C(=C/c3cccn3-c3ccc(C(=O)O)cc3)C2=O)cc1,-0.0674
17,Cc1oc(CC(C)C)cc1C(=O)Nc1cccc2ccccc12,0.0109
18,CCCCNC(=O)C1CC(c2c(Cl)cccc2Cl)=NO1 (stereo not drawn),-0.0558
19,O=C(Nc1cccc(Cl)c1)c1cnn2cccnc12,0.216
20,CCS(=O)(=O)N1CCC(C(=O)NCC2CCCO2)CC1 (stereo not drawn),0.112
21,CCN(CC)C(=O)CSc1nc2ccccc2n1CC(=O)N1CCN(c2ccccc2OC)CC1,0.337
22,CC(C)(C)CC(=O)NCc1ccc(F)cc1,0.0781
23,CCOC(=O)C1CCCN(c2c(N3CCN(C)CC3)c(=O)c2=O)C1 (stereo not drawn),0.129

row,Compound,z-score
1,O=S(=O)(Nc1nc2ccccc2nc1NCCO)c1cccc(Cl)c1,0.581
2,Cc1coc(NC(=O)CSc2nc(-c3ccc(Cl)cc3)cc(C(F)(F)F)c2C#N)n1,-0.241
3,Cc1ccc(CNC(=O)CCS(=O)(=O)c2ccc(Br)s2)o1,0.422
4,Cc1ccc(NC(=O)c2ocnc2C)cc1Cl,-0.249
5,Nc1nc(Sc2ccc(C(F)(F)F)cn2)n[nH]1,0.142
6,CCCCCCCCCOC1OC(CO)C(O)C(O)C1NC(C)=O (stereo not drawn),-0.01
7,O=C(CSc1nc2ccccc2c(=O)n1Cc1ccco1)c1ccc(F)cc1,0.0546
8,O=C(CCCCCn1c(=O)[nH]c2ccsc2c1=O)N1CCN(C2CCCCC2)CC1,-1.04
9,S=c1[nH]cc(-c2ccc(Cl)cc2)n1-c1ccccc1,1.94
10,O=C(O)C1CCCCN1S(=O)(=O)c1cccc2nsnc12 (stereo not drawn),0.389
11,CCOC(=O)c1c(NC(=O)c2c(Br)cnn2CC)sc(C)c1C,-0.131
12,CC1CC(NS(=O)(=O)c2cccs2)CC(C)(C)C1 (stereo not drawn),0.0261
13,O=C(NCCNc1ccc([N+](=O)[O-])cc1C(F)(F)F)c1ccccc1,-0.682
14,CC(=O)c1cccc(NC(=O)COC(=O)[C@@H](NC(=O)OCc2ccccc2)C(C)C)c1,-0.658
15,COc1ccc(CNC(=O)c2ccc(NC(=O)CC3SC(N4CCCCC4)=NC3=O)cc2)cc1 (stereo not drawn),-0.0519
16,Cc1ccc(OCC(=O)c2cc(C)c(C)cc2C)c([N+](=O)[O-])n1,-0.11
17,CCOc1cc(CNCCc2ccc(S(N)(=O)=O)cc2)cc(Cl)c1OCc1ccccc1,-0.78
18,Cc1[nH]n(-c2ccccc2)c(=O)c1C=Nc1ccc2[nH]c(=O)[nH]c2c1,-0.336
19,CC(C)[C@H](NC(=O)NCCc1ccc(Cl)cc1)C(=O)O,0.54
20,COc1cccc(CC2CC(=O)N(CCc3ccc4c(c3)OCO4)C2=O)c1 (stereo not drawn),-0.642
21,Cc1cccc(Oc2cc(N)cc([N+](=O)[O-])c2)c1,-0.714
22,Cc1ccc(S(=O)(=O)Oc2ccc(/C=C(/NC(=O)c3ccccc3)C(=O)Nc3ccccc3)cc2)cc1,-0.00665
23,Nn1c(SCC(=O)N2CCCCCC2)nnc1-c1ccncc1,-0.448

row,Compound,z-score
1,Cc1cc(S(=O)(=O)N2CCN(c3c(C)cccc3C)CC2)ccc1F,0.504
2,CC(C)c1nc(NCC2CCCO2)c(C#N)c2c1COC(C)(C)C2 (stereo not drawn),-0.203
3,S=c1[nH]nc(-c2ccccc2Cl)n1CC1CCCO1 (stereo not drawn),-0.238
4,c1ccc(-n2ncc3c(NCC4CCCO4)ncnc32)cc1 (stereo not drawn),-0.419
5,Cc1noc(C)c1S(=O)(=O)N1CCC2(CC1)OCCO2,-0.239
6,O=C(CSc1ccc(-c2ccccc2)nn1)c1ccccc1,0.0905
7,CC1CCCc2sc3nc(NCc4ccco4)n4ncnc4c3c21 (stereo not drawn),-1.17
8,Cc1ccccc1C(=O)O/N=C1\CCS(=O)(=O)c2sccc21,0.103
9,CCOC(=O)N1CCC(NC(=O)C2CCN(C(=O)N3CC(C)Oc4ccc(C)cc43)CC2)CC1 (stereo not drawn),0.686
10,COc1ccc(S(C)(=O)=O)cc1S(C)(=O)=O,0.196
11,CCc1nc(SCC(=O)N2CCC(Cc3ccccc3)CC2)c2c(=O)n(C)c(=O)n(C)c2n1,-0.415
12,Cc1nc(Cl)c(C(=O)NC(C)(C)C)c(C)c1Cl,0.0125
13,COc1ccccc1NC(=O)NC(=O)N(C(C)C)S(C)(=O)=O,-0.531
14,O=C(Cn1c(=O)oc2ccccc21)Nc1nc(-c2ccc(Br)cc2)cs1,-0.455
15,CC(C)CNC(=S)NNC(=O)c1ccc(OC(F)F)cc1,-0.0885
16,COc1ccc(-c2nc(C#N)c(N3CC(C)OC(C)C3)o2)cc1OC (stereo not drawn),-0.128
17,Cc1cc(N2CCN(C)CC2)nc2ccc(NC(=O)c3cccnc3Cl)cc12,0.503
18,Nc1cc(=O)[nH]c(SCC(=O)Nc2ccc(Br)cc2)n1,0.115
19,CCc1nnc(NS(=O)(=O)c2ccc(NC(=S)NC(=O)/C=C/c3ccc(OC)cc3)cc2)s1,-0.407
20,CC(=O)Nc1ccc(/C(C)=N/NC(=O)c2ccccc2Cl)cc1,-0.00163
21,Cc1ccc(-c2nsc(SCC(=O)Nc3ccc4c(c3)OCO4)n2)cc1,-0.102

# Reference: PubChem BioAssay AID488969 (Vanderbilt High Throughput Screening Facility, 2010)
